# Some of the results follow. These are noisy estimates, calculated here from bound and input reads.
# Target: T1, Pho4 (S. cerevisiae) (UniProt P07270)
# T1 sequence: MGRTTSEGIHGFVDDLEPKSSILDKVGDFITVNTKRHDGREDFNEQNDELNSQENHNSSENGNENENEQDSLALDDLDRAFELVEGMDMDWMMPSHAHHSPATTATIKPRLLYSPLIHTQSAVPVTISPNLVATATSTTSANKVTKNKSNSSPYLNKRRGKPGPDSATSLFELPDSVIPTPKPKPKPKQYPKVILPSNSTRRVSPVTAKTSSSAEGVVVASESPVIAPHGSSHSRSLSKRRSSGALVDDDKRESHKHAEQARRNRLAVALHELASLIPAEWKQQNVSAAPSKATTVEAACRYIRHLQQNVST
# Assay: relative binding free energy (BET-seq); higher = weaker binding
# Details: reference: library average
row,Sequence,relative binding free energy
1,TATTACACGTGGGTAT,-0.13 kcal/mol
2,AATTACACGTGGACGG,0.29 kcal/mol
3,ATTGGCACGTGCCTTG,-0.07 kcal/mol
4,GAATTCACGTGTGGCT,0.31 kcal/mol
5,GGGCGCACGTGCGGTT,-0.04 kcal/mol
6,GAAGCCACGTGGGTGG,-0.09 kcal/mol
7,ATTCTCACGTGTGCGG,0.17 kcal/mol
8,CAGGTCACGTGGCGAG,0.16 kcal/mol
9,ATATACACGTGGTGAG,0.07 kcal/mol
10,AATGGCACGTGAGGCT,0.16 kcal/mol
11,TGGGGCACGTGAACTT,0.09 kcal/mol
12,TTGGCCACGTGGGGTC,-0.23 kcal/mol
13,TTTGGCACGTGTAGCT,0 kcal/mol
14,CTGCGCACGTGTTGGG,-0.23 kcal/mol
15,TATGGCACGTGGGCAA,-0.19 kcal/mol
16,TTTTACACGTGGGGAG,0.09 kcal/mol
17,GCCGTCACGTGTGGGG,0.11 kcal/mol
18,GAGTTCACGTGGGATA,0.31 kcal/mol
19,CTATTCACGTGAGAAT,0.52 kcal/mol
20,CTTGACACGTGGTGGT,-0.01 kcal/mol
21,TTGCACACGTGGTGTC,0.03 kcal/mol
22,ATTCACACGTGTTTTG,-0.06 kcal/mol
23,TTGAGCACGTGTAAAG,0 kcal/mol

row,Sequence,relative binding free energy
1,TAAGGCACGTGCTGTG,-0.07 kcal/mol
2,TGGCTCACGTGTGACT,0.26 kcal/mol
3,GGTGTCACGTGTGCAT,0.2 kcal/mol
4,TGCTACACGTGGTGAA,0.09 kcal/mol
5,TATGGCACGTGTTCAG,-0.08 kcal/mol
6,GTGGGCACGTGGGCAG,-0.19 kcal/mol
7,CGTATCACGTGGGGGA,0.06 kcal/mol
8,TTATTCACGTGGATTG,0.22 kcal/mol
9,AATGTCACGTGGGTAC,-0.07 kcal/mol
10,TGTTTCACGTGCTTCT,0.21 kcal/mol
11,CGTACCACGTGTGGGG,-0.17 kcal/mol
12,AAGAACACGTGTGAGG,0.21 kcal/mol
13,ATGTACACGTGAGAGA,0.39 kcal/mol
14,GTTAACACGTGTGTAG,0.12 kcal/mol
15,AGAGGCACGTGAGAGA,0.14 kcal/mol
16,TGGATCACGTGCATGG,0.1 kcal/mol
17,ATGGACACGTGGGGAG,-0.12 kcal/mol
18,GGATTCACGTGGCCGG,0.24 kcal/mol
19,AAGGTCACGTGAGTGG,0.3 kcal/mol
20,TGGGCCACGTGTATAT,-0.01 kcal/mol
21,TTATACACGTGGTATA,-0.09 kcal/mol
22,AAGGTCACGTGTTTTC,0.03 kcal/mol
23,TGTCTCACGTGTTTGT,0.28 kcal/mol

row,Sequence,relative binding free energy
1,AGTTGCACGTGTCGAG,0.03 kcal/mol
2,GAATACACGTGCTGGT,0.2 kcal/mol
3,GTAGCCACGTGGGTTT,-0.16 kcal/mol
4,ACTGACACGTGTTGTG,0.11 kcal/mol
5,CTGGTCACGTGGCCGG,0 kcal/mol
6,GGTAACACGTGCGTTG,0.05 kcal/mol
7,ATTGTCACGTGAATAG,0.31 kcal/mol
8,TCGGTCACGTGGTGCT,-0.22 kcal/mol
9,CGGGACACGTGAGTTG,0.18 kcal/mol
10,TCTTACACGTGGTAAG,0.16 kcal/mol
11,GGCGTCACGTGAGGCT,0.23 kcal/mol
12,TGGGTCACGTGCTGCA,0.19 kcal/mol
13,GTTGCCACGTGAATTT,0.35 kcal/mol
14,ATATACACGTGTAGAG,0.02 kcal/mol
15,TTTATCACGTGGCGTA,-0.04 kcal/mol
16,GGGTACACGTGGCTAG,0.1 kcal/mol
17,TATAGCACGTGTGTGA,-0.02 kcal/mol
18,ATTTGCACGTGGCTGG,-0.09 kcal/mol
19,GGCGTCACGTGGTGTG,0.13 kcal/mol
20,AAATGCACGTGGCGGG,-0.18 kcal/mol
21,TTGCGCACGTGTGGAA,0.02 kcal/mol
22,GTTCCCACGTGATGGT,0.16 kcal/mol
23,CGTAACACGTGGGGGG,-0.15 kcal/mol

row,Sequence,relative binding free energy
1,TAGGGCACGTGCGTGG,-0.16 kcal/mol
2,CTCGACACGTGGGTGG,-0.17 kcal/mol
3,TGAGTCACGTGTCCGG,0.2 kcal/mol
4,GTAATCACGTGTTTTC,0.21 kcal/mol
5,CTTGTCACGTGGCGGA,0.05 kcal/mol
6,GGTGCCACGTGTGTAC,0.03 kcal/mol
7,AGGTTCACGTGAGGAT,0.36 kcal/mol
8,GGATGCACGTGTATTG,0 kcal/mol
9,AGAAGCACGTGTTGAT,0.03 kcal/mol
10,TGTGTCACGTGGAGCT,-0.05 kcal/mol
11,TGTTTCACGTGCGTCT,0.31 kcal/mol
12,TTTTTCACGTGCATGG,0.3 kcal/mol
13,TGGAGCACGTGAGCGT,0.21 kcal/mol
14,GGTTACACGTGCTGGT,0.08 kcal/mol
15,GAGGGCACGTGGGAGC,-0.29 kcal/mol
16,GAGATCACGTGGGAAT,0.26 kcal/mol
17,GGGCACACGTGGTTGA,0.09 kcal/mol
18,GTAGTCACGTGAGTTA,0.31 kcal/mol
19,AGTTTCACGTGGGCTC,0.16 kcal/mol
20,CGTGGCACGTGTGCGG,-0.11 kcal/mol
21,GGTGTCACGTGGTCGG,0.2 kcal/mol
22,AGTTCCACGTGGGCTT,0.05 kcal/mol
23,GCGTTCACGTGTTATT,0.24 kcal/mol

row,Sequence,relative binding free energy
1,CTTATCACGTGATTGA,0.23 kcal/mol
2,CAGGTCACGTGGGGGG,0.01 kcal/mol
3,TTCGTCACGTGGATTT,0.16 kcal/mol
4,AGTGTCACGTGGAGAC,0.09 kcal/mol
5,GGGCGCACGTGCTAGG,-0.19 kcal/mol
6,ATGGGCACGTGCGTTA,-0.17 kcal/mol
7,ATGCTCACGTGAGTTG,0.29 kcal/mol
8,TCAATCACGTGTTGAT,0.25 kcal/mol
9,GGCGACACGTGGGTGT,-0.07 kcal/mol
10,GTTAGCACGTGGTGTT,-0.2 kcal/mol
11,ATGTTCACGTGTATAG,0.19 kcal/mol
12,GGTCACACGTGTAGGC,0.13 kcal/mol
13,TTTCTCACGTGGAATT,0.35 kcal/mol
14,AATAGCACGTGTTTCT,0.02 kcal/mol
15,CTGGGCACGTGGGCAA,-0.23 kcal/mol
16,TTGGGCACGTGAACCG,0.21 kcal/mol
17,GTTTCCACGTGTTGAT,0.15 kcal/mol
18,CATGACACGTGTGGGT,0.06 kcal/mol
19,CGTATCACGTGTGTGG,0.1 kcal/mol
20,ATGGTCACGTGTAAGT,0.24 kcal/mol
21,AGTCACACGTGTTTTG,-0.12 kcal/mol
22,AAGTGCACGTGTAGCG,0 kcal/mol
23,GTTTGCACGTGGCTAA,-0.07 kcal/mol

# — the BET-seq Pho4 binding data (Le et al. 2018)
